# Screen size: about 190,000 compounds; about 520 (0.27%) were called active. The shares of active, inactive and inconclusive entries below differ from those in the screen.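 How the source made its calls: active means GTP binding activity at least 20 points away from the 100% control level, either lower or higher; inconclusive means compound flagged as likely green fluorescent, judged across all proteins; inactive means the rest.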
# Target: Ras-related C3 botulinum toxin substrate 1 (Homo sapiens) (UniProt P63000)
# Assay: wildtype Rac1 GTP binding modulators, primary screen, biochemical, GST-Rac1 beads, flow cytometry, multiplex (AID 757)
# Details: fluorescent GTP binding, at 10 µM, actives lie on both sides, 0 = cold GTP competed, 100 = untreated
row,Structure (SMILES),GTP binding activity (% of control)
1,O=C(Nc1nnc(-c2ccco2)o1)c1ccc([N+](=O)[O-])s1,inactive: 96%
2,O=C(NCc1ccncc1)C(=O)NCc1ccncc1,inconclusive: 99%
3,O=C(Nc1ccccc1C(=O)NC(Cc1ccccc1)C(=O)NC1CCCCCC1)c1ccccc1 (stereo not given),inconclusive: 102%
4,Cc1nc(N)sc1C(=O)N/N=C/c1ccccc1[N+](=O)[O-],inconclusive: 91%
5,O=C(COC(=O)CCc1c[nH]c2ccccc12)Nc1ccc([N+](=O)[O-])cc1,inconclusive: 93%
6,NC(=S)Nc1cccc2cc3ccccc3cc12,inconclusive: 85%
7,CCNC(=S)NNC(=O)c1cccn(Cc2ccc(Cl)cc2)c1=O,inconclusive: 107%
8,CCN(CC)CCn1c(=S)[nH]c2ccc(Cl)cc2c1=O,inconclusive: 101%
9,COc1ccccc1CNc1ccc(N2CCOCC2)c(C(=O)O)c1,inactive: 104%
10,COc1ccc2[nH]c(C(=O)O)c(CCNC(C)=O)c2c1,inconclusive: 95%
11,O=C(CSc1nnc(-c2ccncc2)n1-c1ccc(Cl)cc1)Nc1ccc(C(=O)O)cc1,inconclusive: 90%
12,CCOc1ccc(C2N(c3ccc(F)cc3)C(=O)C3CCCN32)cc1OC (stereo not given),inconclusive: 106%
13,CCCCCOC(=O)NC1CCS(=O)(=O)C1 (stereo not given),inactive: 101%
14,COc1ccc(NC(=S)NC(NC(=O)c2ccc(Cl)cc2Cl)C(Cl)(Cl)Cl)c([N+](=O)[O-])c1 (stereo not given),inconclusive: 97%
15,CCNC(=O)NC(=O)C(C)OC(=O)c1cccn1C (stereo not given),inactive: 96%
16,Fc1ccc(CNCc2ccccc2Cl)cc1,inconclusive: 90%
17,Cc1ccc(OCC(=O)Nc2ccc(N3CCN(C(=O)c4ccco4)CC3)cc2)cc1,inconclusive: 100%
18,O=C(NC12CC3CC(CC(C3)C1)C2)N1CCN(C(=O)c2ccco2)CC1,inconclusive: 96%
19,Cc1c(NC(=O)c2ccc3c(c2)C(=O)N(Cc2ccco2)C3=O)cccc1C(=O)O,inconclusive: 96%
20,O=c1c2ccccc2nc2c3ccccc3cnn12,active: 65%

row,Structure (SMILES),GTP binding activity (% of control)
1,COC(=O)c1cc(OC)c(OC)cc1NC(=O)c1ccccc1,inconclusive: 105%
2,Cc1ccc(C(=O)c2ccccc2C(=O)O)cc1C,active: 150% [activator]
3,NC(=O)c1cc2ccccc2o/c1=N/NC(=O)c1cccs1,inconclusive: 87%
4,COc1ccc(C(=O)NNC(=O)CSc2nnc(COc3ccccc3OC)n2C)cc1,inactive: 101%
5,Cc1ccc(SCCC(=O)N2CCC(C(N)=O)CC2)cc1,inconclusive: 97%
6,COC(=O)c1ccc(Oc2cc(C)nc(SC)n2)cc1,inconclusive: 107%
7,CCc1cc(C(c2ccccc2OC)N2CCOCC2)c(NC(=O)c2ccccc2)s1 (stereo not given),inconclusive: 105%
8,COc1ccc(C(=O)C2CCCN(Cc3ccc(Sc4nncn4C)o3)C2)cc1F (stereo not given),inactive: 96%
9,CN(C)c1ccc(/C=N\NC(=O)CC#N)cc1,inconclusive: 96%
10,COc1ccc2nc(/C(C#N)=C\c3ccc(C(=O)O)cc3)[nH]c2c1,active: 77%
11,CCOC(=O)C1(CCc2ccccc2)CCN(C(=O)[C@@H]2C[C@@H](C)NC(=S)N2)CC1,inactive: 97%
12,O=C(CSc1nnc(-c2ccco2)o1)c1ccc[nH]1,inconclusive: 95%
13,CN1CCC(N(C)C(=O)CCc2nc3ccccc3n2-c2ccccc2)CC1,inactive: 98%
14,O=C(NCc1cccnc1)C(=O)Nc1ccc2c(c1)OCO2,inactive: 100%
15,O=C(NCC1CCCO1)c1ccc(COc2ccccc2Br)cc1 (stereo not given),inactive: 103%
16,COc1ccc(-c2cc(C(F)(F)F)c3c(n2)sc2c(O)cc(=O)[nH]c23)c(OC)c1,inactive: 80%
17,C/C(=N\n1cnnc1)c1ccc(C#N)cc1,inconclusive: 101%
18,CC(C)(C)C(=O)CNS(=O)(=O)c1ccc(S(=O)(=O)NC2CCCC2)cc1,inactive: 102%
19,c1ccc(-c2nc(NCCCn3ccnc3)c3oc4ccccc4c3n2)cc1,inconclusive: 95%
20,O=[N+]([O-])c1ccc(/C=C/C2=NN(c3ccccc3)C(c3ccco3)C2)cc1 (stereo not given),inconclusive: 129%

row,Structure (SMILES),GTP binding activity (% of control)
1,O=C(CSc1ncnc2ccccc12)NCCc1ccccc1,inconclusive: 97%
2,CCN1CCCC1CNC(=O)CSc1cc(=O)n(CC)c2ccccc12 (stereo not given),inconclusive: 103%
3,CCOC(=O)N1CCC(N2CCCC(CO)(Cc3cccc(Cl)c3)C2)CC1 (stereo not given),inactive: 102%
4,CC(C(=O)NC(C)(C)C)N(Cc1cccs1)C(=O)CCN1CCc2ccccc21 (stereo not given),inactive: 99%
5,CCCNC(=O)COC(=O)/C=C/c1ccc(C)o1,inactive: 100%
6,Clc1cccc(Cc2nn[nH]n2)c1,inactive: 101%
7,Clc1ccc(Cl)c(OCc2cc(-c3ccccc3Cl)on2)c1,inconclusive: 110%
8,Cn1c(=O)n(Cc2ccc(Cl)cc2)c2ccccc21,inactive: 102%
9,COC(=O)CCC(=O)NNC(=O)Cc1ccccc1,inactive: 102%
10,CC(C(=O)N1CCOCC1)N1C(=O)c2cccc3cccc(c23)C1=O (stereo not given),inactive: 102%
11,O=C(CSc1nc2ccccc2[nH]1)NC1CCS(=O)(=O)C1 (stereo not given),inconclusive: 109%
12,C/C(=N\Nc1cccc([N+](=O)[O-])c1)c1ccccc1O,inconclusive: 98%
13,O=C1CC(c2ccccc2)CC(O)=C1C=NCCN1CCN(C(=O)Nc2ccccc2)CC1 (stereo not given),inconclusive: 105%
14,O=C(NNC(=O)C1CCCN(S(=O)(=O)c2cccc(F)c2)C1)C1CC1 (stereo not given),inconclusive: 94%
15,COC(=O)C1=C(C(=O)OC)C(c2cc([N+](=O)[O-])ccc2O)c2sc(=O)[nH]c2S1 (stereo not given),inconclusive: 87%
16,O=C(Nc1ccccc1)N1CCCC(c2nc(-c3ccc(F)cc3)no2)C1 (stereo not given),inconclusive: 102%
17,Cc1ccc2nc(N(CCCN(C)C)C(=O)c3ccco3)sc2c1,inconclusive: 603%
18,C=CCN(c1ccccc1)S(=O)(=O)c1cccc(C(=O)Oc2ccc3c(C)cc(=O)oc3c2)c1,inconclusive: 105%
19,CC(C)(C)c1cc(C(=O)NCCN2CCCC2)cc(C(C)(C)C)c1,inactive: 104%
20,CCOc1ccc(C(=O)c2ccc([N+](=O)[O-])cc2Cl)cc1,inconclusive: 91%
